The supplement of paper PMC4996465
Viability of KB3-1 and Nalm-6 cells after 48 h of drug alone (CellTiter-Glo), 11 doses over about 4.5 log units. % of DMSO wells, lower = more cell loss; AC50 from the fitted curve, lower = more potent. No active / inactive call. Nalm-6 was screened in two runs. AC50 is listed only for well-fitted inhibitory curves. KB3-1 is a HeLa-derived carcinoma line, Nalm-6 a B-cell precursor leukaemia line.

Legend:
KB3-1 [1] = test: log AC50 of viability decrease (48 h) (log10 M); higher = less potent
Protocol: (§1)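 Eleven-dose screen of the NCATS MIPE 3 library on cells without co-treatment; CellTiter-Glo after 48 h. AC50 from the curve fit; only inhibitory curves of the better fit classes are listed.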

Nalm-6 [2] = test: as above
Protocol: as §1

KB3-1 [3] = test: viability (% of DMSO control); higher = more viable cells
Protocol: (§2)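 Eleven-dose screen of the NCATS MIPE 3 library on cells without co-treatment; CellTiter-Glo after 48 h, as % of DMSO wells.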

Nalm-6 [4] = test: as above
Protocol: as §2

Compound | log AC50 of viability decrease (KB3-1 [1]) | log AC50 of viability decrease (Nalm-6 [2]; run: 1) | log AC50 of viability decrease (Nalm-6 [2]; run: 2) | viability (KB3-1 [3]; 0.00078 µM) [%] | viability (KB3-1 [3]; 0.00234 µM) [%] | viability (KB3-1 [3]; 0.00702 µM) [%] | viability (KB3-1 [3]; 0.0211 µM) [%] | viability (KB3-1 [3]; 0.0632 µM) [%] | viability (KB3-1 [3]; 0.19 µM) [%] | viability (KB3-1 [3]; 0.569 µM) [%] | viability (KB3-1 [3]; 1.71 µM) [%] | viability (KB3-1 [3]; 5.12 µM) [%] | viability (KB3-1 [3]; 15.4 µM) [%] | viability (KB3-1 [3]; 46.1 µM) [%] | viability (Nalm-6 [4]; run: 1, 0.00078 µM) [%] | viability (Nalm-6 [4]; run: 1, 0.00234 µM) [%] | viability (Nalm-6 [4]; run: 1, 0.00702 µM) [%] | viability (Nalm-6 [4]; run: 1, 0.0211 µM) [%] | viability (Nalm-6 [4]; run: 1, 0.0632 µM) [%] | viability (Nalm-6 [4]; run: 1, 0.19 µM) [%] | viability (Nalm-6 [4]; run: 1, 0.569 µM) [%] | viability (Nalm-6 [4]; run: 1, 1.71 µM) [%] | viability (Nalm-6 [4]; run: 1, 5.12 µM) [%] | viability (Nalm-6 [4]; run: 1, 15.4 µM) [%] | viability (Nalm-6 [4]; run: 1, 46.1 µM) [%] | viability (Nalm-6 [4]; run: 2, 0.00078 µM) [%] | viability (Nalm-6 [4]; run: 2, 0.00234 µM) [%] | viability (Nalm-6 [4]; run: 2, 0.00702 µM) [%] | viability (Nalm-6 [4]; run: 2, 0.0211 µM) [%] | viability (Nalm-6 [4]; run: 2, 0.0632 µM) [%] | viability (Nalm-6 [4]; run: 2, 0.19 µM) [%] | viability (Nalm-6 [4]; run: 2, 0.569 µM) [%] | viability (Nalm-6 [4]; run: 2, 1.71 µM) [%] | viability (Nalm-6 [4]; run: 2, 5.12 µM) [%] | viability (Nalm-6 [4]; run: 2, 15.4 µM) [%] | viability (Nalm-6 [4]; run: 2, 46.1 µM) [%]
C=C1/C(=C/C=C2\CCCC3(C)[C@@H]([C@H](C)/C=C/C=C/C(O)(CC)CC)CC[C@@H]23)C[C@@H](O)C[C@@H]1O (some centres undefined) [Seocalcitol] | -4.68 | -4.73 | -4.63 | 115 | 117 | 118 | 119 | 125 | 119 | 111 | 113 | 110 | 95.1 | 43.3 | 106 | 109 | 110 | 110 | 108 | 103 | 115 | 113 | 101 | 74.5 | 4.14 | 98.9 | 101 | 100 | 104 | 106 | 104 | 106 | 103 | 97.8 | 85.1 | 0.597
Cc1ccc(C(=O)Nc2cccc(C(F)(F)F)c2)cc1-c1ccc2nc(NCCN3CCOCC3)ncc2c1 [AMG-47a] | -4.88 | -4.78 | -4.83 | 106 | 104 | 113 | 116 | 119 | 111 | 106 | 87.7 | 64.4 | 50.4 | 9.2 | 113 | 109 | 102 | 114 | 116 | 102 | 105 | 85.9 | 75 | 47.7 | 0.41 | 96.2 | 104 | 104 | 103 | 98.6 | 101 | 92 | 94 | 70.6 | 42 | 0.202
COc1cc2c(cc1O)CC[C@@H]1[C@@H]2CC[C@]2(C)[C@@H](O)CC[C@@H]12 [2-Methoxyestradiol] | -6.08 | -6.08 | -6.38 | 99.4 | 100 | 101 | 103 | 104 | 102 | 69 | 36.8 | 28.4 | 23.2 | 10.9 | 117 | 106 | 115 | 113 | 123 | 112 | 89.5 | 31.2 | 40.5 | 26.8 | 8.85 | 110 | 105 | 111 | 105 | 108 | 104 | 41 | 16.4 | 17.5 | 24.9 | 4.46
COC[C@H]1OC(=O)C2=COC3=C2[C@@]1(C)\C4=C(C5CCC(=O)[C@@]5(C)C[C@H]4OC(C)=O)/C3=O (some centres undefined) [17_-hydroxy Wortmannin] | -4.78 | -5.38 | -5.23 | 105 | 103 | 103 | 104 | 99.7 | 99.3 | 95.3 | 91 | 90.8 | 82.2 | 64.8 | 111 | 104 | 104 | 110 | 98.3 | 88.9 | 75.7 | 57 | 45.5 | 40.1 | 9.31 | 110 | 111 | 122 | 121 | 112 | 105 | 88.9 | 69.3 | 58.5 | 41.7 | 6.74
CCOc1ccc(Nc2nc(-c3c(C)nc4ccccn34)cs2)cc1 [JK 184] | -8.23 | -7.98 | -7.98 | 110 | 99.8 | 54.9 | 29.3 | 24.8 | 19.3 | 19 | 18.9 | 16.6 | 18.9 | 9.9 | 108 | 113 | 90.3 | 23.4 | 26.7 | 13.2 | 12.6 | 11.4 | 12.4 | 10.1 | 6.94 | 105 | 97.4 | 83.5 | 14.9 | 21.5 | 7.87 | 8.44 | 8 | 8.13 | 8.87 | 5.42
CC1=C(/C=C/C(C)=C/C=C/C(C)=C/C(=O)Nc2ccc(O)cc2)C(C)(C)CCC1 [Fenretinide] | -4.63 | -5.63 | -5.73 | 103 | 101 | 105 | 102 | 97.6 | 99.8 | 100 | 98.1 | 97.7 | 82.9 | 4.68 | 109 | 106 | 108 | 106 | 104 | 101 | 73.4 | 68.8 | 20.6 | 11.1 | -0.266 | 102 | 98.3 | 102 | 99.4 | 102 | 88.1 | 74 | 63 | 5.58 | 2.38 | 0.34
COCCn1c2c([n+](Cc3cnccn3)c1C)C(=O)c1ccccc1C2=O [Sepantronium bromide] | -8.43 | -8.78 |  | 63.2 | 41.6 | 27.7 | 12.4 | 8.84 | 6.57 | 6.59 | 6.52 | 4.96 | 4.77 | 0.959 | 30.8 | 17.4 | 10.3 | 10.1 | 9.98 | 10.1 | 9.82 | 9.15 | 8.52 | 7.56 | 2.14 | 25.4 | 14.7 | 6.61 | 5.6 | 5.49 | 5.45 | 5.29 | 5.15 | 4.78 | 4.61 | 1.77
CC(NCc1ccc2c(c1)[nH]/c(=N\C(=O)c1ccc(-c3cn[nH]c3)s1)n2CC(C)(C)O)C(C)(C)C (centres undefined) | -7.38 | -7.43 | -7.33 | 97.3 | 97.6 | 100 | 80.5 | 36.2 | 12.8 | 11.3 | 8.23 | 6.31 | 5.38 | 2.33 | 89.1 | 93.2 | 80.3 | 52.4 | 42.3 | 17.4 | 5.24 | 5.47 | 3.23 | 1.41 | 1.08 | 92.3 | 99.4 | 84 | 58 | 55.3 | 7.09 | 4.06 | 7.16 | 2.26 | 1.21 | 0.685
CCC(C)n1ncn(-c2ccc(N3CCN(c4ccc(OC[C@H]5CO[C@](Cn6cncn6)(c6ccc(Cl)cc6Cl)O5)cc4)CC3)cc2)c1=O (some centres undefined) [Itraconazole] | -4.78 | -5.83 | -6.13 | 106 | 111 | 111 | 108 | 109 | 107 | 109 | 101 | 97.9 | 87.8 | 64.9 | 104 | 105 | 106 | 111 | 104 | 119 | 107 | 47.6 | 25.8 | 9.54 | 12.4 | 101 | 99.8 | 102 | 103 | 105 | 108 | 77.4 | 13.5 | 6.3 | 7.21 | 9.51
OCCC#Cc1nc(-c2ccc(F)cc2)c(-c2ccncc2)n1CCCc1ccccc1 | -4.73 | -4.78 | -4.63 | 104 | 102 | 102 | 99.8 | 109 | 102 | 102 | 99.1 | 99.1 | 88.5 | 60.2 | 116 | 119 | 127 | 125 | 111 | 107 | 117 | 110 | 96.6 | 80.1 | 25.1 | 107 | 108 | 109 | 108 | 111 | 104 | 110 | 104 | 106 | 86.3 | 2.53
